Key:
rat PD-L1 protein = rat PD-L1 protein (rat, UniProt D4AE25 19-239); experiment: ELISA, coated rat PD-L1
Source text: After washing, the plates were developed with TMB substrate and analyzed by spectrophotometer at OD 450 nm.

mouse PD-L1 protein = mouse PD-L1 protein (mouse, UniProt Q9EP73 fragment, limits assumed); experiment: ELISA, coated mouse PD-L1
recombinant human TGF-β = recombinant human TGF-β (human, UniProt P01137 fragment, The mature TGF-β1 is a disulfide-linked homodimer; one protomer is given.); experiment: cell-based or functional assay
human TGF-β1 protein [1] = biological target: T1, human TGF-β1 protein (human, UniProt P01137 fragment); experiment: cell-based or functional assay
human TGF-β1 protein [2] = biological target: T1, human TGF-β1 protein; experiment: cell-based or functional assay; remark: listed apart in the source
T1 sequence (P01137 279-390 limits assumed): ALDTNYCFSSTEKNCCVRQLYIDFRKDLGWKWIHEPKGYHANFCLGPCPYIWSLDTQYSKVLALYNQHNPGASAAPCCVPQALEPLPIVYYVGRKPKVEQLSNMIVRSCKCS

mouse PD-L1 protein, sequence (Q9EP73 19-239 limits assumed): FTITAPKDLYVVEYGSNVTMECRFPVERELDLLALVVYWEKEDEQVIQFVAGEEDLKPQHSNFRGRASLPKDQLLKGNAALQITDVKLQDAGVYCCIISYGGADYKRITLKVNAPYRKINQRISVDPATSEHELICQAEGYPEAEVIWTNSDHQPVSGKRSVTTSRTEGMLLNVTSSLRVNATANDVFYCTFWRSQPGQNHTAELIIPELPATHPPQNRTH
rat PD-L1 protein, sequence (D4AE25 entry or part of it limits assumed): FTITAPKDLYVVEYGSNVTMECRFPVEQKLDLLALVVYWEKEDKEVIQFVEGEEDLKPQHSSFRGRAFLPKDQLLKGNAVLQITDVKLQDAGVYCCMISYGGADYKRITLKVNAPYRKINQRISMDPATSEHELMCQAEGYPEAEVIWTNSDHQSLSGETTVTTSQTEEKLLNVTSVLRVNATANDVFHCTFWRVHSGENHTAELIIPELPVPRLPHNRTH
recombinant human TGF-β, sequence (P01137 279-390 limits assumed): as the sequence (P01137 279-390 limits assumed) above

| Binder | IC50, SMAD luciferase reporter in transfected 293 cells with recombinant human TGF-β1; lower panel (human TGF-β1 protein [1]) | IC50, SMAD luciferase reporter in transfected 293 cells with recombinant human TGF-β1; upper panel (human TGF-β1 protein [1]) | TGF-β SMAD luciferase reporter assay in transfected 293 cells (human TGF-β1 protein [2]) | further results |
| --- | --- | --- | --- | --- |
| LP008-06a-ES (other, also called CZ010-06a-ES) heavy: EVQLVESGGGLVKPGGSLRLSCAASGFTFSNYWMTWIRQAPGKGLEWVASITNTGSSTFYPESVKGRFTISRDNAKNSLYLQMNSLRAEDTAVYYCTRDTTIAPFDYWGQGTMVTVSSASTKGPSVFPLAPSSKSTSGGTAALGCLVKDYFPEPVTVSWNSGALTSGVHTFPAVLQSSGLYSLSSVVTVPSSSLGTQTYICNVNHKPSNTKVDKRV[human IgG1 Fc omitted]GGGGSGGGGSGGGGSGGGGSGIPPHVQKSVNNDMIVTDNNGAVKFPQLCKFCDVRFSTCDNQKSCMSNCSITSICEKPQEVCVAVWRKNDENITLETVCHDPKLPYHDFILEDAASPKCIMKEKKKPGETFFMCSCSSDECNDNIIFSEEYNTSNPD light: DIQMTQSPSSLSASVGDRVTITCKASQNLNEYLNWYQQKPGKAPKRLIYKTNTLQAGIPSRFSGSGSGTDYTLTISSLQPEDFATYYCSQYQSGNTFGQGTKLEIKRTVAAPSVFIFPPSDEQLKSGTASVVCLLNNFYPREAKVQWKVDNALQSGNSQESVTEQDSKDSTYSLSSTLTLSKADYEKHKVYACEVTHQGLSSPVTKSFNRGEC |  |  |  | binding result (rat PD-L1 protein): no binding (tested: starting from 1 µg/ml); binding result (mouse PD-L1 protein): no binding (tested: starting from 1 µg/ml); TGF-β SMAD luciferase reporter assay in transfected 293 cells (recombinant human TGF-β): 0.0717 nM |
| LP008-02 (other, Bifunctional anti-PD-L1 antibody (67F3G7 VH V2 / VL V4) whose heavy chain is fused through a (Gly4Ser)4Gly linker to the TGF-β RII extracellular domain; also called CZ010-02) heavy: EVQLVQSGAEVKKPGASVKVSCKASGYTFTDFWVSWVRQAPGQGLEWMGEIYPNSGVSRYNEKFKGRVTMTVDKSISTAYMELSRLRSDDTAVYYCTKYFGYTYWFGYWGQGTLVTVSSASTKGPSVFPLAPSSKSTSGGTAALGCLVKDYFPEPVTVSWNSGALTSGVHTFPAVLQSSGLYSLSSVVTVPSSSLGTQTYICNVNHKPSNTKVDKRV[human IgG1 Fc omitted]GGGGSGGGGSGGGGSGGGGSGIPPHVQKSVNNDMIVTDNNGAVKFPQLCKFCDVRFSTCDNQKSCMSNCSITSICEKPQEVCVAVWRKNDENITLETVCHDPKLPYHDFILEDAASPKCIMKEKKKPGETFFMCSCSSDECNDNIIFSEEYNTSNPD light: DIQMTQSPSSLSASVGDRVTITCRASKSVSTYMHWYQQKPGKQPKLLIYSASHLESGVPSRFSGSGSGTDFTLTISSLQPEDFATYYCQQSNELPVTFGGGTKVEIKRTVAAPSVFIFPPSDEQLKSGTASVVCLLNNFYPREAKVQWKVDNALQSGNSQESVTEQDSKDSTYSLSSTLTLSKADYEKHKVYACEVTHQGLSSPVTKSFNRGEC |  |  |  | binding result (rat PD-L1 protein): no binding (tested: starting from 1 µg/ml); binding result (mouse PD-L1 protein): no binding (tested: starting from 1 µg/ml); TGF-β SMAD luciferase reporter assay in transfected 293 cells (recombinant human TGF-β): 0.0735 nM |
| LP008-02-1 (other) heavy: EVQLVQSGAEVKKPGASVKVSCKASGYTFTDFWVSWVRQAPGQGLEWMGEIYPNSGVSRYNEKFKGRVTMTVDKSISTAYMELSRLRSDDTAVYYCTKYFGYTYWFGYWGQGTLVTVSSASTKGPSVFPLAPSSKSTSGGTAALGCLVKDYFPEPVTVSWNSGALTSGVHTFPAVLQSSGLYSLSSVVTVPSSSLGTQTYICNVNHKPSNTKVDKRV[human IgG1 Fc omitted]GGGGSGGGGSGGGGSGGGGSGIPPHVQKSVNNDMIVTDNNGAVKFPQLCKFCDVRFSTCDNQKSCMSNCSITSICEKPQEVCVAVWRKNDENITLETVCHDPKLPYHDFILEDAASPKCIMKEKKKPGETFFMCSCSSDECNDNIIFSEEYNTSNPD light: DIQMTQSPSSLSASVGDRVTITCRASKSVSTYMHWYQQKPGKQPKLLIYSASHLESGVPSRFSGSGSGTDFTLTISSLQPEDFATYYCQQSNELPVTFGGGTKVEIKRTVAAPSVFIFPPSDEQLKSGTASVVCLLNNFYPREAKVQWKVDNALQSGNSQESVTEQDSKDSTYSLSSTLTLSKADYEKHKVYACEVTHQGLSSPVTKSFNRGEC | 0.143 nM | 0.13 nM |  |  |
| LP008-02-3 (other) heavy: EVQLVQSGAEVKKPGASVKVSCKASGYTFTDFWVSWVRQAPGQGLEWMGEIYPNSGVSRYNEKFKGRVTMTVDKSISTAYMELSRLRSDDTAVYYCTKYFGYTYWFGYWGQGTLVTVSSASTKGPSVFPLAPSSKSTSGGTAALGCLVKDYFPEPVTVSWNSGALTSGVHTFPAVLQSSGLYSLSSVVTVPSSSLGTQTYICNVNHKPSNTKVDKRV[human IgG1 Fc omitted]GGGGSGGGGSGGGGSGGGGSGGGGSTAGHTQTSTGGGAITTGTSGAGHGPQLCKFCDVRFSTCDNQKSCMSNCSITSICEKPQEVCVAVWRKNDENITLETVCHDPKLPYHDFILEDAASPKCIMKEKKKPGETFFMCSCSSDECNDNIIFSEEYNTSNPD light: DIQMTQSPSSLSASVGDRVTITCRASKSVSTYMHWYQQKPGKQPKLLIYSASHLESGVPSRFSGSGSGTDFTLTISSLQPEDFATYYCQQSNELPVTFGGGTKVEIKRTVAAPSVFIFPPSDEQLKSGTASVVCLLNNFYPREAKVQWKVDNALQSGNSQESVTEQDSKDSTYSLSSTLTLSKADYEKHKVYACEVTHQGLSSPVTKSFNRGEC |  |  | 0.164 nM |  |
| LP008-02-5 (other) heavy: EVQLVQSGAEVKKPGASVKVSCKASGYTFTDFWVSWVRQAPGQGLEWMGEIYPNSGVSRYNEKFKGRVTMTVDKSISTAYMELSRLRSDDTAVYYCTKYFGYTYWFGYWGQGTLVTVSSASTKGPSVFPLAPSSKSTSGGTAALGCLVKDYFPEPVTVSWNSGALTSGVHTFPAVLQSSGLYSLSSVVTVPSSSLGTQTYICNVNHKPSNTKVDKRV[human IgG1 Fc omitted]SGGGGSGGGGSGGGGSGGGGSGGGGSHYPQLCKFCDVRFSTCDNQKSCMSNCSITSICEKPQEVCVAVWRKNDENITLETVCHDPKLPYHDFILEDAASPKCIMKEKKKPGETFFMCSCSSDECNDNIIFS light: DIQMTQSPSSLSASVGDRVTITCRASKSVSTYMHWYQQKPGKQPKLLIYSASHLESGVPSRFSGSGSGTDFTLTISSLQPEDFATYYCQQSNELPVTFGGGTKVEIKRTVAAPSVFIFPPSDEQLKSGTASVVCLLNNFYPREAKVQWKVDNALQSGNSQESVTEQDSKDSTYSLSSTLTLSKADYEKHKVYACEVTHQGLSSPVTKSFNRGEC |  | 0.336 nM |  |  |
| LP008-02-2 (other) heavy: EVQLVQSGAEVKKPGASVKVSCKASGYTFTDFWVSWVRQAPGQGLEWMGEIYPNSGVSRYNEKFKGRVTMTVDKSISTAYMELSRLRSDDTAVYYCTKYFGYTYWFGYWGQGTLVTVSSASTKGPSVFPLAPSSKSTSGGTAALGCLVKDYFPEPVTVSWNSGALTSGVHTFPAVLQSSGLYSLSSVVTVPSSSLGTQTYICNVNHKPSNTKVDKRV[human IgG1 Fc omitted]GGGGSTAGHTQTSTGGGAITTGTSGAGHGPQLCKFCDVRFSTCDNQKSCMSNCSITSICEKPQEVCVAVWRKNDENITLETVCHDPKLPYHDFILEDAASPKCIMKEKKKPGETFFMCSCSSDECNDNIIFSEEYNTSNPD light: DIQMTQSPSSLSASVGDRVTITCRASKSVSTYMHWYQQKPGKQPKLLIYSASHLESGVPSRFSGSGSGTDFTLTISSLQPEDFATYYCQQSNELPVTFGGGTKVEIKRTVAAPSVFIFPPSDEQLKSGTASVVCLLNNFYPREAKVQWKVDNALQSGNSQESVTEQDSKDSTYSLSSTLTLSKADYEKHKVYACEVTHQGLSSPVTKSFNRGEC |  |  | 0.143 nM |  |
| LP008-02-6 (other) heavy: EVQLVQSGAEVKKPGASVKVSCKASGYTFTDFWVSWVRQAPGQGLEWMGEIYPNSGVSRYNEKFKGRVTMTVDKSISTAYMELSRLRSDDTAVYYCTKYFGYTYWFGYWGQGTLVTVSSASTKGPSVFPLAPSSKSTSGGTAALGCLVKDYFPEPVTVSWNSGALTSGVHTFPAVLQSSGLYSLSSVVTVPSSSLGTQTYICNVNHKPSNTKVDKRV[human IgG1 Fc omitted]SGGGGSGGGGSGGGGSGGGGSGGGGSHYPQLCKFCDVRFSTCDNQKSCMSNCSITSICEKPQEVCVAVWRKNDENITLETVCHDPKLPYHDFILEDAASPKCIMKEKKKPGETFFMCSCSSDECNDNIIFSEEYNTSNPD light: DIQMTQSPSSLSASVGDRVTITCRASKSVSTYMHWYQQKPGKQPKLLIYSASHLESGVPSRFSGSGSGTDFTLTISSLQPEDFATYYCQQSNELPVTFGGGTKVEIKRTVAAPSVFIFPPSDEQLKSGTASVVCLLNNFYPREAKVQWKVDNALQSGNSQESVTEQDSKDSTYSLSSTLTLSKADYEKHKVYACEVTHQGLSSPVTKSFNRGEC | 0.223 nM |  |  |  |

Second part, led by results:

| IC50, SMAD luciferase reporter in transfected 293 cells with recombinant human TGF-β1; lower panel (human TGF-β1 protein [1]) | IC50, SMAD luciferase reporter in transfected 293 cells with recombinant human TGF-β1; upper panel (human TGF-β1 protein [1]) | TGF-β SMAD luciferase reporter assay in transfected 293 cells (human TGF-β1 protein [2]) | Binder | further results |
| --- | --- | --- | --- | --- |
| 0.408 nM |  |  | LP008-02-7 (other) heavy: EVQLVQSGAEVKKPGASVKVSCKASGYTFTDFWVSWVRQAPGQGLEWMGEIYPNSGVSRYNEKFKGRVTMTVDKSISTAYMELSRLRSDDTAVYYCTKYFGYTYWFGYWGQGTLVTVSSASTKGPSVFPLAPSSKSTSGGTAALGCLVKDYFPEPVTVSWNSGALTSGVHTFPAVLQSSGLYSLSSVVTVPSSSLGTQTYICNVNHKPSNTKVDKRV[human IgG1 Fc omitted]GGGGSGGGGSGGGGSHYPQLCKFCDVRFSTCDNQKSCMSNCSITSICEKPQEVCVAVWRKNDENITLETVCHDPKLPYHDFILEDAASPKCIMKEKKKPGETFFMCSCSSDECNDNIIFSEEYNTSNPD light: DIQMTQSPSSLSASVGDRVTITCRASKSVSTYMHWYQQKPGKQPKLLIYSASHLESGVPSRFSGSGSGTDFTLTISSLQPEDFATYYCQQSNELPVTFGGGTKVEIKRTVAAPSVFIFPPSDEQLKSGTASVVCLLNNFYPREAKVQWKVDNALQSGNSQESVTEQDSKDSTYSLSSTLTLSKADYEKHKVYACEVTHQGLSSPVTKSFNRGEC |  |
|  | 0.188 nM | 0.173 nM | LP008-02-4 (other) heavy: EVQLVQSGAEVKKPGASVKVSCKASGYTFTDFWVSWVRQAPGQGLEWMGEIYPNSGVSRYNEKFKGRVTMTVDKSISTAYMELSRLRSDDTAVYYCTKYFGYTYWFGYWGQGTLVTVSSASTKGPSVFPLAPSSKSTSGGTAALGCLVKDYFPEPVTVSWNSGALTSGVHTFPAVLQSSGLYSLSSVVTVPSSSLGTQTYICNVNHKPSNTKVDKRV[human IgG1 Fc omitted]GGGGSGGGGSGGGGSGGGGSGGGGSTAGHTQTSTGGGAITTGTSGAGHGPQLCKFCDVRFSTCDNQKSCMSNCSITSICEKPQEVCVAVWRKNDENITLETVCHDPKLPYHDFILEDAASPKCIMKEKKKPGETFFMCSCSSDECNDNIIFS light: DIQMTQSPSSLSASVGDRVTITCRASKSVSTYMHWYQQKPGKQPKLLIYSASHLESGVPSRFSGSGSGTDFTLTISSLQPEDFATYYCQQSNELPVTFGGGTKVEIKRTVAAPSVFIFPPSDEQLKSGTASVVCLLNNFYPREAKVQWKVDNALQSGNSQESVTEQDSKDSTYSLSSTLTLSKADYEKHKVYACEVTHQGLSSPVTKSFNRGEC |  |

From US11028174 (LEPU BIOPHARMA, dated 2021)
